# About 14,000 (4.5%) of roughly 310,000 compounds showed an effect of 50% or more. The effect is printed as a negative number. Some of the results follow.
# Target: human ether-à-go-go-related gene (hERG) potassium channel (human, UniProt Q12809)
# Test: primary screen, population patch clamp on CHO cells stably expressing hERG
# 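Also: peak tail current of the secondary pulse compared with the same well before compound.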
# human ether-à-go-go-related gene (hERG) potassium channel, sequence (Q12809 whole entry, looked up): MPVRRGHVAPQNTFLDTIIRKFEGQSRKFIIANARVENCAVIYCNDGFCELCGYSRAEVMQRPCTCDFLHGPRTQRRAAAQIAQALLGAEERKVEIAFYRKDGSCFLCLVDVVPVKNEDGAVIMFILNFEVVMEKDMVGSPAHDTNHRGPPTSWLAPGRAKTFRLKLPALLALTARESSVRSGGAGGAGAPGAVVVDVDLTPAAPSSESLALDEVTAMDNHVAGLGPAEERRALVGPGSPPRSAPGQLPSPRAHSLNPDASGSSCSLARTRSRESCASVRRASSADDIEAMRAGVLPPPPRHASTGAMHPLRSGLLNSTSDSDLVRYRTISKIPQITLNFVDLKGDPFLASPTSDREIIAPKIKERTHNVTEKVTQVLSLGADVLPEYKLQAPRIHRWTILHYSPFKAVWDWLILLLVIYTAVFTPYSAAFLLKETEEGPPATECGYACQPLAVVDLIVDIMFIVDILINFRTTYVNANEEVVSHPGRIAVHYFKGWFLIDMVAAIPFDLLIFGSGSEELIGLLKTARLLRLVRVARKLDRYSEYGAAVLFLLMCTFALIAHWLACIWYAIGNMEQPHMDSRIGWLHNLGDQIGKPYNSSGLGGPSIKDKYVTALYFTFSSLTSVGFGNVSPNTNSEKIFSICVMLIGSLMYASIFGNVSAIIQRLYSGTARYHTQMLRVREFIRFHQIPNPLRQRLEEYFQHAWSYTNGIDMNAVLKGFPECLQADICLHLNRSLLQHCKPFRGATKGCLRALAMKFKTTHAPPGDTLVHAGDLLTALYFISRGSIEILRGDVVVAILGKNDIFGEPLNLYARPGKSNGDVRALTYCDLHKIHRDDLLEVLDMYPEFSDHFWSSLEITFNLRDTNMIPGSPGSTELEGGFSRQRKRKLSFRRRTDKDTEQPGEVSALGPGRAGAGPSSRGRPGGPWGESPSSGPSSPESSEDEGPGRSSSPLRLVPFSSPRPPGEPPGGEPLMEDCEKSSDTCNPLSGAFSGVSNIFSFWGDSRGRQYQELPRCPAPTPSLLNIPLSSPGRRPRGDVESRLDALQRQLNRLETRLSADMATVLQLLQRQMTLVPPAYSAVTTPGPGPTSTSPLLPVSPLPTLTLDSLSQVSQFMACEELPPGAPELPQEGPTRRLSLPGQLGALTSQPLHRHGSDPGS
row,Compound,"hERG current change (%, negative = inhibition) at 10uM"
1,CC/C(=N\NC(=O)c1ccccc1Cl)c1c(O)n(C2CCCCC2)c(=O)[nH]c1=O,2.68%
2,CC[C@@H](C)[C@H](NC(=O)Cc1c(C)c2cc3c(C)coc3c(C)c2oc1=O)C(=O)O,6.21%
3,Nc1ccc[n+](Cc2ccccn2)c1.[Br-],20.3%
4,O=C(NCCCN1CCOCC1)c1ccc(CS(=O)(=O)c2c(Cl)cccc2Cl)o1,2.35%
5,CCN(C(=O)c1ccc(Br)o1)C1CCS(=O)(=O)C1 (centres unmarked),4.44%
6,c1ccc2nc(-c3ccncc3)ccc2c1,23.4%
7,CCOC(=O)c1ccc(Nc2cc(C)nc(C)c2C(=O)OCC)cc1.Cl,-62.6%
8,Cc1cc(C)nc(N2CCCC(C(=O)Nc3ccc4c(c3)OCCO4)C2)n1 (centres unmarked),14.4%
9,O=c1c2ccccc2c(C=NCCCN2CCOCC2)c(O)n1Cc1ccc2c(c1)OCO2,-34.3%
10,CCCN1Cc2cccc(C(=O)N3CCN(c4ccccc4)CC3)c2C1=O,6.02%
11,O=C(CSc1nnc2ccccn12)NC(=O)Cc1ccccc1,29.1%
12,COc1ccc(C)cc1NC(=O)C1CCCN(S(=O)(=O)c2cccc3nonc23)C1 (centres unmarked),2.09%
13,O=C(NNC(=O)c1cccc2ccccc12)c1ccccc1O,4.19%
14,OCC[C@@H]1C[C@H](O)[C@@H](O)[C@@]2(CCCO2)O1,1.51%
15,CC(=O)OCCCCON1C(=O)c2ccccc2C1=O,20.4%
16,O=C(Nc1cccc(OC(=O)c2cccnc2)c1)c1cccnc1,5.55%
17,COc1ccc(N=Cc2c(O)[nH]c3ccccc23)cc1,0.417%
18,CC1CCc2nc3ccccc3c(C(=O)OCC(=O)N(C)C3CCS(=O)(=O)C3)c2C1 (centres unmarked),-2.95%
19,Cc1c(CC(=O)O)c(=O)oc2cc(OCc3ccc(F)cc3Cl)ccc12,17.1%
20,CCc1ccccc1OCC(=O)Nc1cccc(S(=O)(=O)NC2=NCCCCC2)c1,-20.6%

row,Compound,"hERG current change (%, negative = inhibition) at 10uM"
1,COc1cccc2c1OC1(CCN(C(C)C)CC1)N1N=C(c3cccnc3)CC21 (centres unmarked),-9.03%
2,COc1ccc(Nc2cc(C)c3ccccc3n2)cc1,4.57%
3,Fc1ccc(CSc2nncn2NCc2ccccc2)cc1,-10.2%
4,Cc1[nH]c2ccccc2c1C(=O)CN1CC=C(c2ccccc2)CC1,-52.4%
5,CCOC(=O)C1CCCN(c2cc(=O)n(-c3ccccc3Cl)c(=O)[nH]2)C1 (centres unmarked),9.43%
6,O=C(Nc1cccc(S(=O)(=O)NC2=NCCC2)c1)C1CCC1,9.46%
7,O=C(NN1CCOCC1)c1ccco1,11%
8,COc1cc(C2(O)CCCCC2C)cc(OC)c1OC (centres unmarked),15.9%
9,CSCCC(NC(=O)c1ccccc1)C(=O)O (centres unmarked),12%
10,O=C(NCC1COc2ccccc2O1)c1ccc(Cl)cc1 (centres unmarked),-10.8%
11,CC1/C(=N/O)CC(c2ccco2)NC1c1ccco1 (centres unmarked),15.5%
12,CCc1ccc(C(=O)NC(=S)NCc2cccnc2)cc1,-40.7%
13,CN1CCN(S(=O)(=O)c2ccc3c(c2)NC(=O)C2CCCN32)CC1 (centres unmarked),16.4%
14,NC(=S)N/N=C1\CC(n2nnnc2-c2ccccc2)C2COC1O2 (centres unmarked),8.14%
15,CCCCOc1cccc(C(=O)O)c1,-4.57%
16,O=C(COC(=O)c1ccc(Cl)nc1)Nc1cccnc1Cl,14.6%
17,CCCC(=O)c1cc(-c2nc3ccccc3n2C)n(C)c1,-20%
18,O=C(Nc1ccc(CN2CCOCC2)cc1)c1ccccc1F,-1.31%
19,CCn1c(SCC(=O)NCc2ccc3c(c2)OCO3)nnc1-c1ccco1,-5.03%
20,Cc1c(C)n(Cc2ccccc2)c2ncnc(NCCCN(C)C)c12,-28.4%

row,Compound,"hERG current change (%, negative = inhibition) at 10uM"
1,CCOc1cccc(-c2c(C(=O)N/N=C/c3ccco3)nnn2-c2nonc2N)c1,6.62%
2,CCCCOC(=O)Nc1nc(C)c(C(=O)OCC)s1,-3.4%
3,NC(=O)c1cnn(C2CCS(=O)(=O)C2)c1 (centres unmarked),14.3%
4,O=C(O)COCC(=O)Nc1cc(C(F)(F)F)cc(C(F)(F)F)c1,3.82%
5,O=c1c(Cc2ccc(Cl)cc2Cl)c(O)ccn1CC(F)(F)F,12.7%
6,CCN(CC)C(=O)c1cn(-c2ccccc2)nc1-c1ccc2c(c1)OCCO2,-3.56%
7,Nc1ccc(C(=O)N2CCN(S(=O)(=O)/C=C/c3ccccc3)CC2)cc1[N+](=O)[O-],-43.9%
8,CC(NC(=O)c1ccc2c(c1)OCO2)C(c1cccs1)N1CCOCC1 (centres unmarked),4.45%
9,CCN(CCCNC(=O)C1CCN(C(=O)c2cc3sccc3n2C)CC1)Cc1ccccc1,-38.4%
10,CC(CNS(=O)(=O)c1ccccc1)(c1ccccc1)N1CCCCC1 (centres unmarked),4.54%
11,Cc1cc(C)n(-c2nc3ccccc3nc2Nc2ccc3c(c2)OCO3)n1,13.8%
12,CC1CCN(CC[C@H]2CCCN2S(=O)(=O)c2cccc(O)c2)CC1.Cl,-22.4%
13,NNc1nc(-c2ccccc2Cl)nc2sc3c(c12)CCCC3,6.73%
14,COc1ccc(-c2nnnn2C)cc1S(=O)(=O)NCc1ccccc1,-13.9%
15,C[C@H]1O[C@H]1P(=O)([O-])[O-].[Na+],12.1%
16,Cc1ccc(C)c(S(=O)(=O)N2CCN(CC(=O)Nc3ccc4c(c3)CCC4)CC2)c1,-0.408%
17,CCOC(=O)C1CCN(C(=O)Cn2c(=O)oc3cc(S(=O)(=O)N4CCCC4)ccc32)CC1,-4.92%
18,COC(=O)c1cc2c(C)[nH]c(C)c2cc(C(=O)OC)c1=O,1.72%
19,O=C1OCCN1C(=O)[C@H]1[C@H](c2ccc([N+](=O)[O-])cc2)C(c2cccc(Cl)c2)=NN1c1ccccc1,5.99%

# Reference: article PMC4336329 (PLoS ONE, 2015)
